Where “and” joins values, the source holds several entries; their conditions need not be identical. Equal values may be shown once. The inconclusive results got no clear call from the source; some entries with a clear call stand among them for comparison. A potency beside an inconclusive call is a rough fit, not a confirmed value. Calls of active or inactive are those of the source. Calls come from the whole dose curve; as a rule, active = well fitted cell-killing curve with a large enough effect in the repeat runs; inconclusive = weak or mixed curves, or effect the other way; inactive = flat fitted curve, though single readings scatter.
assay: Caspase-3/7 induction in HepG2 cells by small molecules, qHTS cell viability counter screen (AID 1346981); details: CellTiter-Fluor fluorescence, 17 h; series mostly up to 92.4 µM; note: nearly all actives have a fitted effect of over 30% in size
Source text: U.S. Tox21 Program National Center for Advancing Translational Sciences [NCATS] NIH Chemical Genomics Center [NCGC] U.S. Environmental Protection Agency [EPA] National Institutes of Environmental Health Sciences [NIEHS] National Toxicology Program [NTP] U.S. Food and Drug Administration [FDA] Tox21 Assay Overview: Apoptosis is a process of programmed cell death and plays a central role in the development of multicellular organisms. It is a highly regulated process and induces cell death by activating caspases, which are the members of cysteine aspartic acid-specific protease (caspase) family. Caspases involved in apoptosis are classified by their mechanism of action as initiator caspases (caspase-2, -8, -9 and -10) and executioner caspases (caspase-3, -6, and -7). Inhibition of apoptosis results in number of cancers, autoimmune diseases, inflammatory diseases and viral infection. To identify small molecule compounds that induce apoptosis, a homogeneous, luminescent Caspase-Glo 3/7 assay was used. Wild type HepG2 cells were used to screen Tox21 libraries for identifying caspase-3/7 activity inducers. Also cytotoxicity of the compounds was tested in parallel by measuring the cell viability using CellTiter-Fluor assay system in the same wells.
Tox21 Assay Protocol Summary: HepG2 cells were dispensed at 2,000 per well in 5uL of culture medium into white solid bottom 1536-well plates (Corning Life Sciences, Corning, NY) using a Multidrop Combi (Thermo Scientific, Waltham, MA) dispenser. The assay plates were incubated at 37 C and 5% CO2 for 5hr, and then 23nL of compounds dissolved in DMSO and positive control were transferred using a Pintool station ([…], San Diego, CA). The assay plates were incubated at 37C and 5% CO2 for 17hr. For cytotoxicity read, after 16hr incubation at 37C, 1uL CellTiter-Fluor reagent (Promega Corporation, Madison, WI) was added to each well of the assay plates using Flying Reagent Dispenser (FRD, Aurora Discovery, San Diego, CA). After 1hr incubation at 37C and 5% CO2, the fluorescence signal was quantified using a ViewLux plate reader (PerkinElmer, Shelton, CT).
Potency is the fitted concentration of half-maximal effect; tags give direction and shape of the fitted curve.

SMILES | Potency
CN(C)C(=N)N=C(N)N | inconclusive: 27.3 µM [rising, partial curve, poor fit]
C#C[C@]1(O)CC[C@H]2[C@@H]3CCc4cc(O)ccc4[C@H]3CC[C@@]21C | inconclusive: 60.7 µM [cytotoxic, partial curve]
C=CC(=O)OCCOCCOC(=O)C=C | active: 61.4 µM
CC[C@@]1(O)C(=O)OCc2c1cc1n(c2=O)Cc2cc3c(CN(C)C)c(O)ccc3nc2-1 | inconclusive: 29.8 µM [rising, partial curve]
COC(=O)C1=C(C)NC(C)=C(C(=O)O[C@@H]2CCCN(Cc3ccccc3)C2)[C@@H]1c1cccc([N+](=O)[O-])c1 | inconclusive: 33.5 µM [cytotoxic, single point]
CC(C)(C)c1cc(O)c(C(C)(C)C)cc1O | inconclusive: 68.6 µM [cytotoxic, single point]
O=C1OC(OC(=O)c2cccnc2Nc2cccc(C(F)(F)F)c2)c2ccccc21 (stereo not given) | inconclusive: 16.8 µM [rising, partial curve, poor fit]
CCOc1ccc(N)c([N+](=O)[O-])c1 | inconclusive: 54.5 µM [cytotoxic, partial curve]
C=CC(C)(CCC=C(C)C)OC(=O)c1ccccc1 (stereo not given) | inconclusive: 30.6 µM [rising, partial curve, poor fit]
O=[N+]([O-])c1ccc(O/N=C/c2cc(Br)c(O)c(Br)c2)c([N+](=O)[O-])c1 | active: 27.2 µM
O=C(O)c1cccc(N(Cc2cccnc2)c2ccc(OC(F)F)c(OC(F)F)c2)c1 | inconclusive: 77 µM [cytotoxic, partial curve, poor fit]
CN(C)c1ccc(C(=C2C=CC(=[N+](C)C)C=C2)c2ccc(N(C)C)cc2)cc1 | active: 17.1 µM and active: 9.69 µM and active: 8.41 µM
CCCOC(=O)c1ccc(C(=O)OCCC)nc1 | inactive
OCCN1CCN(CCCN2c3ccccc3Sc3ccc(C(F)(F)F)cc32)CC1 | inconclusive: 33.5 µM [cytotoxic, partial curve]
CN(C)CCN1CCN(c2cccc(Cl)c2)C1=O | inactive
CC(C)=CCC[C@@](C)(O)[C@H]1CC=C(C)CC1 | inactive
O=CC=C(c1ccccc1)c1ccccc1 | inconclusive: 69.1 µM [cytotoxic, partial curve, poor fit]
O=S(=O)(O)c1ccc(Nc2nc(Nc3ccc(/C=C/c4ccc(Nc5nc(Nc6ccc(S(=O)(=O)O)cc6)nc(N(CCO)CCO)n5)cc4S(=O)(=O)O)c(S(=O)(=O)O)c3)nc(N(CCO)CCO)n2)cc1 | inactive
CCCCCCCCCCCCOCCOCCOCCOCCOCCOCCOCCOCCOCCO | active: 29.8 µM
CC(NCCC(c1ccccc1)c1ccccc1)c1ccccc1 (stereo not given) | inconclusive: 33.5 µM [cytotoxic, single point]

SMILES | Potency
NNc1ccc(C(=O)O)cc1 | inconclusive: 77.7 µM [cytotoxic, single point]
COc1ccc2cc3[n+](cc2c1OC)CCc1cc2c(cc1-3)OCO2 | active: 54.9 µM and inconclusive: 33.5 µM [cytotoxic, single point]
COc1cc(C=O)ccc1O | inactive
COC(=O)C1=C(C)NC(COC(N)=O)=C(C(=O)OC(C)C)C1c1cccc(Cl)c1Cl (stereo not given) | inconclusive: 33.5 µM [cytotoxic, single point]
O=C1Nc2ccc(Cl)cc2[C@@](C#CC2CC2)(C(F)(F)F)O1 | inconclusive: 29.8 µM [cytotoxic, single point]
CNCc1cc(F)ccc1Oc1ccc(Cl)c(Cl)c1 | inconclusive: 68.6 µM [cytotoxic, single point]
Clc1ccc2c(c1)CCc1cccnc1C2=C1CCNCC1 | inconclusive: 33.5 µM [cytotoxic, single point]
CCCCC(CC)C(=O)O (stereo not given) | inconclusive: 0.0555 µM [cytotoxic, single point]
CC(C)(C)NSc1nc2ccccc2s1 | inactive
C=C(C)C(=O)OCC(O)COc1ccc(C(C)(C)c2ccc(OCC(O)COC(=O)C(=C)C)cc2)cc1 (stereo not given) | inconclusive: 77 µM [cytotoxic, single point]
O=C(CCOCCOCCOCCOCCC(=O)Nc1c(I)cc(I)c(C(=O)O)c1I)Nc1c(I)cc(I)c(C(=O)O)c1I | inactive
O=C1Nc2ccccc2C1(c1ccc(O)cc1)c1ccc(O)cc1 | inconclusive: 68.6 µM [cytotoxic, single point]
CN(C)CCOC(c1ccccc1)c1ccc(Br)cc1 (stereo not given) | inconclusive: 23.7 µM [cytotoxic, partial curve]
O=C1c2ccccc2Cc2ccccc21 | inconclusive: 12.3 µM [cytotoxic, full curve]
O=C(O)c1cc2ccccc2cc1O | inconclusive: 17.2 µM [rising, partial curve, poor fit]
COc1ccc2cc1Oc1ccc(cc1)C[C@H]1c3c(cc4c(c3Oc3cc5c(cc3OC)CCN(C)[C@@H]5C2)OCO4)CCN1C | active: 26.6 µM
CCN(CC)c1cccc(O)c1 | inactive
Cc1ccc(O)c(O)c1 | inconclusive: 66.6 µM [cytotoxic, single point]
COc1ccccc1Oc1c(NS(=O)(=O)c2ccc(C(C)(C)C)cc2)nc(-c2ncccn2)nc1OCCO | inconclusive: 33.5 µM [cytotoxic]
COc1ccc(C(=O)CC(=O)c2ccc(C(C)(C)C)cc2)cc1 | inconclusive: 73.8 µM [cytotoxic, partial curve, poor fit]
